The supplement of paper PMC7826260
Some of the results follow. Cleavage of a single-stranded DNA pool by Rep nickase domains was read by sequencing (1 h at 37 °C, 3 µM enzyme); the outer parts of the 90-letter strands are left off. Numbers give uncut DNA relative to the enzyme-free pool, as log2; the lower, the more was cut; hits are not called. Reads are scaled to the total, so uncut sequences can rise above 0 when many others are cut.

How the values were obtained:
Test in all cases: uncleaved DNA left, log2 of reads against the no-enzyme library (log2 ratio); higher = less cleavage (more negative = more Rep cleavage of the k-mer); sequences stand for … in CTCGTCCG…ACCGGAGA
[1] = system: T1, Rep nickase domain of Muscovy duck circovirus
T1 sequence (protein, residues 1-111, tag omitted): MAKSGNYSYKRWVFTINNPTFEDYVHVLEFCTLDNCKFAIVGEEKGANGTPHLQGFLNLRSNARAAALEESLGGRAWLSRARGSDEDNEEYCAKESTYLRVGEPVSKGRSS
Procedure: (§1)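 A pool of 90-nt single-stranded DNAs with seven random bases just before the constant AC of the nick site (name = the seven bases) was cut by 3 µM recombinant His6-SUMO-tagged Rep nickase domain (300 nM DNA, 50 mM HEPES pH 8.0, 50 mM NaCl, 1 mM MnCl2, 1 h, 37 °C, three replicates). Uncut DNA was amplified and sequenced.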

[2] = system: T2, Rep nickase domain of banana bunchy top virus
T2 sequence (protein, residues 1-94, tag omitted): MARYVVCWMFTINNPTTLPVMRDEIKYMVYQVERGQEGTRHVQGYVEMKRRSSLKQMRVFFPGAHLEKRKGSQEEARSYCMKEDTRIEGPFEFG
Procedure: as §1

[3] = system: T3, Rep nickase domain of cabbage leaf curl virus
T3 sequence (protein, residues 1-116, tag omitted): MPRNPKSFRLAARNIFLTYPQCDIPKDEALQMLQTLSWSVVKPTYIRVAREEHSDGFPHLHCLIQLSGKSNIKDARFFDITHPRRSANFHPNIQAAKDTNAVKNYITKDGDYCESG
Procedure: as §1

[4] = system: T4, Rep nickase domain of chickpea chlorotic dwarf virus
T4 sequence (protein, residues 1-124, tag omitted): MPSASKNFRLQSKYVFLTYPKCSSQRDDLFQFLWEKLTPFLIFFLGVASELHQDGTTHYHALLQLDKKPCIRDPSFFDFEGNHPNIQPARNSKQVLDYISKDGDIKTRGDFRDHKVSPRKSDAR
Procedure: as §1

[5] = system: T5, Rep nickase domain of faba bean necrotic yellows virus
T5 sequence (protein, residues 1-98, tag omitted): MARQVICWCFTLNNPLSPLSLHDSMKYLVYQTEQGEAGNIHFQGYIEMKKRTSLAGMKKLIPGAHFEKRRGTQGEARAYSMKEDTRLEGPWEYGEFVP
Procedure: as §1

[6] = system: T6, Rep nickase domain of maize striate mosaic virus
T6 sequence (protein, residues 1-117, tag omitted): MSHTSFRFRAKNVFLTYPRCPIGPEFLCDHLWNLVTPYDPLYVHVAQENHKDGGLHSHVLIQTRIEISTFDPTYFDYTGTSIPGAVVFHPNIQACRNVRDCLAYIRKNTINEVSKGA
Procedure: as §1

[7] = system: T7, Rep nickase domain of porcine circovirus 2
T7 sequence (protein, residues 2-116, tag omitted): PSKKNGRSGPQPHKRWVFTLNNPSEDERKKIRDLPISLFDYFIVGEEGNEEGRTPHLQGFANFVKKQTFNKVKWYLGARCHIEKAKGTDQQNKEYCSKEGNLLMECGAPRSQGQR
Procedure: as §1

[8] = system: T8, Rep nickase domain of tomato golden mosaic virus
T8 sequence (protein, residues 1-124, tag omitted): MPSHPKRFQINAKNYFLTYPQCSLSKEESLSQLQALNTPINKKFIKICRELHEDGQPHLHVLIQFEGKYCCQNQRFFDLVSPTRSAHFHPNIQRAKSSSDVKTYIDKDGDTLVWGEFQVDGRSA
Procedure: as §1

[9] = system: T9, Rep nickase domain of tomato yellow leaf curl virus
T9 sequence (protein, residues 1-136, tag omitted): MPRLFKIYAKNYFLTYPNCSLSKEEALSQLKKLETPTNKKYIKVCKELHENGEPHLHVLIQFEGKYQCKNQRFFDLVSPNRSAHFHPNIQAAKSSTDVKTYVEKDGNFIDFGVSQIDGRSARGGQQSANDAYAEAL
Procedure: as §1

[10] = system: T10, Rep nickase domain of wheat dwarf virus
T10 sequence (protein, residues 1-137, tag omitted): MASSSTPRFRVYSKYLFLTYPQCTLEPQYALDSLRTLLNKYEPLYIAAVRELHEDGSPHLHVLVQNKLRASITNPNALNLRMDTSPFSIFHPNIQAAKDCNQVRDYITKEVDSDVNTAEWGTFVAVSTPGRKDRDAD
Procedure: as §1

| Sequence | uncleaved DNA left (log2) [1] | uncleaved DNA left (log2) [2] | uncleaved DNA left (log2) [3] | uncleaved DNA left (log2) [4] | uncleaved DNA left (log2) [5] | uncleaved DNA left (log2) [6] | uncleaved DNA left (log2) [7] | uncleaved DNA left (log2) [8] | uncleaved DNA left (log2) [9] | uncleaved DNA left (log2) [10] |
| --- | --- | --- | --- | --- | --- | --- | --- | --- | --- | --- |
| ACATCAA | -0.0297 | 0.0378 | -0.102 | -0.285 | -0.103 | -0.546 | 0.11 | 0.0299 | 0.00957 | 0.0395 |
| AGCTGGC | 0.0954 | 0.0141 | -0.0158 | 0.802 | -0.0347 | 0.202 | 0.15 | 0.0717 | -0.0195 | 0.0249 |
| GGGCCGG | -0.0549 | 0.0762 | 0.849 | 1.86 | 0.0719 | 2.25 | 0.128 | 0.155 | 0.0199 | 0.0599 |
| CGGTTTG | -0.0207 | -0.00215 | -0.0069 | 0.225 | 0.0757 | 0.174 | 0.0237 | -0.00161 | 0.0101 | 0.128 |
| ACAGTAG | 0.0958 | -0.058 | -0.626 | -0.00653 | 0.153 | -1.08 | 0.31 | 0.152 | 0.19 | 0.0374 |
| CAAATGC | 0.0262 | -0.00495 | -0.774 | -0.69 | 0.0983 | -1.31 | 0.0902 | -0.0455 | 0.0806 | -0.0695 |
| TGGTAGC | 0.0238 | -0.203 | 0.00487 | 0.0189 | -0.073 | -0.312 | 0.056 | -0.0437 | -0.0805 | -0.0344 |
| CCATTAC | 0.0645 | 0.0799 | -0.427 | -1.56 | 0.00575 | -0.981 | 0.013 | 0.0413 | 0.0763 | -0.0159 |
| GTGATTC | 0.0885 | 0.0767 | 0.285 | 0.911 | -0.0534 | 1.82 | 0.193 | 0.118 | 0.102 | 0.0486 |
| GGGTATA | 0.00943 | 0.0393 | 0.803 | 1.92 | -0.0173 | 2.17 | 0.191 | 0.109 | 0.0369 | 0.0795 |
| CTTAGCG | -0.0895 | -0.036 | -0.882 | 0.293 | -0.0638 | -0.833 | 0.0601 | -0.101 | -0.0672 | -0.184 |
| CACCTCG | -0.0261 | 0.0738 | -0.832 | -0.0479 | 0.00109 | -0.822 | -0.0216 | 0.00287 | 0.0372 | -0.161 |
| TGACGAG | 0.0105 | -0.0176 | 0.356 | 0.416 | 0.00236 | 0.246 | 0.0763 | -0.033 | -0.104 | 0.0516 |
| TCTTCCA | -0.0864 | -0.0313 | 0.146 | -1.18 | 0.0944 | -0.388 | -0.136 | -0.0591 | 0.0106 | 0.0425 |
| ATCATTG | 0.045 | -0.0123 | -0.726 | -0.67 | 0.0613 | -1.14 | 0.213 | -0.0848 | -0.0947 | -0.16 |
| GAACGTG | -0.077 | -0.0946 | -0.0604 | -0.024 | -0.0121 | -0.196 | 0.022 | -0.0354 | -0.201 | 0.00026 |
| TTCCCGA | -0.145 | -0.148 | -0.139 | -0.538 | -0.217 | -0.814 | -0.262 | -0.172 | -0.0624 | -0.111 |
| AGTCAAT | 0.0103 | -0.0584 | 0.276 | 0.437 | -0.201 | 0.485 | -3.44 | 0.0074 | 0.00192 | 0.109 |
| GTTAACT | 0.0702 | 0.0797 | 0.248 | 0.36 | 0.0516 | 1.66 | -0.0764 | 0.127 | 0.0894 | 0.173 |
| TGTGTAT | 0.00188 | 0.106 | 0.363 | 0.65 | 0.0479 | 1.39 | -0.0313 | 0.116 | 0.102 | 0.108 |
| TATGGGC | 0.0354 | -0.00564 | 0.155 | 0.223 | 0.0225 | -0.244 | 0.103 | 0.0974 | 0.0283 | -0.13 |
| GGACGAC | 0.0162 | 0.0206 | 0.663 | 1.75 | -0.184 | 2.07 | 0.137 | -0.114 | -0.0468 | 0.0779 |
| AGACCTC | 0.0671 | -0.0243 | 0.667 | 1.42 | -0.024 | 1.72 | 0.0653 | 0.0882 | 0.0448 | 0.125 |
| GAGAAGG | 0.106 | 0.0188 | 0.289 | 0.858 | 0.0721 | 0.69 | 0.0558 | 0.183 | 0.0442 | 0.149 |
| AGTTTGC | 0.033 | -0.0557 | -0.719 | -0.273 | -0.0498 | -1.22 | 0.0355 | -0.106 | 0.0124 | -0.206 |
| TCAGCTG | -0.108 | 0.0148 | 0.194 | 1.4 | -0.18 | 1.67 | 0.133 | 0.0235 | -0.215 | -0.0904 |
| CGCATAT | 0.0489 | -0.0571 | 0.018 | -0.412 | -0.00607 | -0.389 | -0.0903 | -0.152 | 0.0228 | 0.0205 |
| CATTTTT | -3.35 | -3.77 | -1.65 | -3.14 | -1.33 | -0.946 | -3.76 | -1.47 | -0.089 | -0.728 |
| TGCGAGG | -0.0655 | -0.107 | 0.0322 | 0.515 | -0.165 | 1.41 | -0.0887 | -0.034 | -0.0955 | -0.02 |
| TTTGACT | -0.0255 | 0.0121 | 0.00611 | -1.99 | -0.0179 | -0.11 | -0.19 | -0.121 | 0.0789 | -0.0416 |
